Test results as given in the RNAGym collection of RNA variant scans (doi:10.1093/nar/gkz1192).
The source gives no read counts; variants with many changes may rest on few reads.

B1: CPEB3 Ribozyme (parent)
chain: UAACAGGGGGCCACAGCAGAAGCGUUCACGUCGCAGCCCCUGUCAGAUUCUGGUGAAUCUGCGAAUUCUGCUGUAUAUCUC

Variants of: B1
Test: self-cleavage, relative activity (ratio to wild type); higher = more cleavage; in vitro, sequencing
Procedure, shortened: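 For each CPEB3 ribozyme variant, relative activity is its cleaved/total read fraction divided by the unmutated ribozyme's. Barcoded error-prone PCR libraries were transcribed by T7 RNA polymerase (5 hours, 37°C) and held in DNase I for 15 min before an EDTA stop, with cleavage occurring throughout. Template-switching reverse transcription and Illumina sequencing were used to read the RNAs. A 5-read minimum applied, and results are the mean of three batches.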

| Variant | self-cleavage |
| --- | --- |
| UAACAGGGGGCCACAGCAGAAGCGACCACGCCGCAGCCCCUGACAGAUUCUGGUGAAUCUGCGAAUUCUGCUGUAUAUCUC | 0.13 |
| UAACAGGGGGCCACAGCAGAAGCGACCACGCCGCAGCCCCCGCCAGAUUCUGGUGUAUCUGCGAAUUCUGCUGUAUAUCUC | 0.07 |
| UAACAGGGGGCCACAGCAGAAGCGAUCACGUCGCAGCCCCUGCCAGAUUCUGGUGAAUCUGCGAAUUCUGCCGUAUAUCUC | 0.27 |
| UAACAGGGGGCCACAGCAGAAGCGAUCACGUCGCAGCCCCUUUCCGAUUCUGGUGAAUCUGCGAAUUCUGCUGUAUAUCUC | 0.16 |
| UAACAGGGGGCCACAGCAGAAGCGAUCACGUCGCAGCCCCGGUAAGAUUCUGGUGAAUCUGCGAAUUCUGCUGUAUAUCUC | 0.26 |
| UAACAGGGGGCCACAGCAGAAGCGAUCACGCCGCAGCCCCUGUCAGAUCCUGGUGAAUCUGCGAAUUCUGCUGUAUAUCUC | 0.15 |
| UAACAGGGGGCCACAGCAGAAGCGAUCACGUCGCAGCCCCUGUCAGAUUCUGGUGAAUCUGUGAAUUCUGCAGUAUAUCUC | 0.09 |
| UAACAGGGGGCCACAGCAGAAGCGACCGCGUCGCUGCCCCUGUCAGAUUCUGGUGAAUCUGCGAAUUCUGCUGUAUAUCUC | 0.21 |
| UAACAGGGGGCCACAGCAGAAGCGAUCACGACGCAGCCCCUGUCAGAUUCUGGUGAAUCCGCGAAUUCUGCUGUAUAUCUC | 0.06 |
| UAACAGGGGGCCACAGCAGAAGCGACCACGUCGCAGCCCCUGUCAGAUUCUGGUGAAUCUGCGAAUACUGCUGUAUAUCUC | 0.13 |
| UAACAGGGGGCCACAGCAGAAGCGAUCACGUCGCAGCCCCCGUCAGAUCCUGGUGAAUCUGCGUAUUCAGCUGUAUAUCUC | 0.06 |
| UAACAGGGGGCCACAGCAGAAGCGAACACGUCGCAGCCCCUGUCAGAUUCUGGUGAAUCUGCGAAUCCUGCUGUAUAUCUC | 0.21 |
| UAACAGGGGGCCACAGCAGAAGCGAUCACCUCGCAGCCCCGGUCAGAUUCCGGUGAAUCUGCGAAUUCUGCUGUAUACCUC | 0.06 |
| UAACAGGGGGCCACAGCAGAAGCGAUCACGUCGCAGCCCCUGACAGAUUCUGGUGAAUCUGCGAACUCUACUGUAUACCUC | 0.07 |
| UAACAGGGGGCCACAGCAGAAGCGAUCACAUCGCAGCCCCUGUCAGAUUCUGGUGAAUCGGCGUAUUCUGCUGUAUACCCC | 0.05 |
| UAACAGGGGGCCACAGCAGAAGCGAACACGUCCCAGCCCCUGACAGAAUCUGGUGAAUCUGCGAAUUCUGCUGUAUAUCUC | 0.06 |
| UAACAGGGGGCCACAGCAGAAGCGACCACGUCGCAGCCCCUGUCAGAUCCUGGUGAAUUUGCGAGCUCUGCCGUAUAUCUC | 0.18 |

| Variant | self-cleavage |
| --- | --- |
| UAACAGGGGGCCACAGCAGAAGCGACCACGUCGCAGCCCCAGUCAGAUUCUGGAGAACCUGCGAAUCCUGCUGUAUUUCUC | 0.08 |
| UAACAGGGGGCCACAGCAGAAGCGAUCACGUCGCAGCCCCUGUCAGACUCUGGUGAAUCUGCGGAUUCUGCUGUAUAUCCC | 0.09 |
| UAACAGGGGGCCACAGCAGAAGCGAUCACGUCGCAGCCCCAGUCAGGUCCUGGAGAAUCUGCGAAUUCUGCUGUAUGUCUC | 0.31 |
| UAACAGGGGGCCACAGCAGAAGCGAGCACGUCGCAGCCCCAGUCAGAUCCUGGUGAGUCUGCGAAUUCUGCUGUAUAUCCC | 0.14 |
| UAACAGGGGGCCACAGCAGAAGCGAUCACGUCGCAUCCCCUGUCAGAUUCUGGUGAAUCUGCGAAUUCAGCUGUUUAUCUC | 0.15 |
| UAACAGGGGGCCACAGCAGAAGCGAUCACGACGCGGCCCCUGCCAGAUUCUGGUGAAUCUGCGAAUUCUGCUGUAUAUCUC | 0.11 |
| UAACAGGGGGCCACAGCAGAAGCGAUCACGUCGCAGCCCCUGACAGAUUCUGGUGAAUCUGCGAAUCCUGCUGUAUAUCUC | 0.17 |
| UAACAGGGGGCCACAGCAGAAGCGAUCACCUCGCAGCCCCUGUCAGAUUCUGGUGAAUCUGCGAAUUCUGCUGUACAUCUC | 0.12 |
| UAACAGGGGGCCACAGCAGAAGCGAUCACGUCGCAGCCCCUGUCAGACUCUGGUGAAUCUGCGAAUUCUGCUGCAUAUCCC | 0.23 |
| UAACAGGGGGCCACAGCAGAAGCGACCACGUCGCAGCCCCCGUCAGAUUCUGGUGAAUCUGCGAAUUCUGCUGUAUAUCUC | 0.23 |
| UAACAGGGGGCCACAGCAGAAGCGAUCACGUCGCAGCCCCUGUCAGACUCUGGAGAAUCUGCGAAUUCUGCUGUAUAUCUC | 0.33 |
| UAACAGGGGGCCACAGCAGAAGCGAUCACGCCGCAGCCCCUGCCAGAUUCUGGUGAGUCUGCGAAUUCAGCUGUAUUUCUC | 0.04 |
| UAACAGGGGGCCACAGCAGAAGCGAUCACGUCGCAGCCCCUGUCAGAUUCUGGUGAAUCUGCGAAUUCUACUGUAUAUCAC | 0.23 |
| UAACAGGGGGCCACAGCAGAAGCGAUCACGUCGCAGCCCCAGUCAGAUUCAGGUGUGUCCGCGAAUUCUGCUGUAUAUCUC | 0.1 |
| UAACAGGGGGCCACAGCAGAAGCGACCUCGUCGCAGCCCCAGUCAGAUUCUGGUGAAUCUGCGAAUUCUGCUGUAUAUCUC | 0.62 |
| UAACAGGGGGCCACAGCAGAAGCGAUCACGUCGCAGCCCCAGUCAGAUUCUGGUGAAUCUGCGAAUUCUGCUGUAUAUCAC | 0.22 |
| UAACAGGGGGCCACAGCAGAAGCGAUCACAUCGCAGCCCCUGUCAGAUUCUGGUGAAUCUGCGAAUUCUGCUGUAUAACUC | 0.18 |
